Data reported in patent US20090186900A1, “COMPOUND” (priority 2006, published 2009).
At least one read-out could not be matched to a standard name with certainty.

Biological target: T1, 17β-HSD1 (Homo sapiens, UniProt P14061)
T1 construct: Assay of 17β-hydroxysteroid Dehydrogenase Activity in T-47D Cells (E1→E2); endogenous in cells; host or cells: T-47D human breast cancer cells
T1 sequence (P14061 1-328): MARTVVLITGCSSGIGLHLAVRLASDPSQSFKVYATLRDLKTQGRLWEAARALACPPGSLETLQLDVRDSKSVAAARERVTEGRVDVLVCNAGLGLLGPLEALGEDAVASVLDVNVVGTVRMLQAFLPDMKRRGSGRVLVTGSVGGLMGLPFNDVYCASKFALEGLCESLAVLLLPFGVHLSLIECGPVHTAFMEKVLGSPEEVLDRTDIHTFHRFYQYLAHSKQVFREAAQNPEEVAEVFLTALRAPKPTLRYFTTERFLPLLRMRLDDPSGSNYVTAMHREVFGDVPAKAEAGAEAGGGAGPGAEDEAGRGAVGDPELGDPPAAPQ
Experiment: 17β-HSD Type I assay in T-47D cells (E1→E2)
Assay type: cell-based
Conditions: T-47D human breast cancer cells, screened at 10 μM or 1 μM, sem typically ±5%

Structure (SMILES)	Inhibition of 17β-HSD1
COc1ccc(-c2ccc3c(c2)CCC3=O)cc1F [Compound 3, 5-(3-Fluoro-4-methoxyphenyl)-indan-1-one]	C (Compounds that were tested @ 10 μM and showed <80% inhibition and compounds that were tested @ 1 μM and showed <30% inhibition are designated C)
O=C1CCc2cc(-c3ccc(O)cc3)ccc21 [Compound 8, 5-(4-Hydroxyphenyl)-indan-1-one]	A (Compounds that were tested @ 10 μM and showed >80% inhibition are designated A)
O=C1CCc2cc(-c3ccc(O)c(F)c3)ccc21 [Compound 9, 5-(3-Fluoro-4-hydroxyphenyl)-indan-1-one]	A (Compounds that were tested @ 10 μM and showed >80% inhibition are designated A)
CCOC(=O)CC1Cc2cc(-c3ccc(O)c(F)c3)ccc2C1=O (centres unmarked) [Compound 12, [5-(3-Fluoro-4-hydroxyphenyl)-1-oxo-indan-2-yl]-acetic Acid Ethyl Ester]	C (Compounds that were tested @ 10 μM and showed <80% inhibition and compounds that were tested @ 1 μM and showed <30% inhibition are designated C)
CCc1cc(-c2ccc3c(c2)CC(CC(=O)NCc2cccnc2)C3=O)ccc1O (centres unmarked) [Compound 18, 2-[5-(3-Ethyl-4-hydroxyphenyl)-1-oxo-indan-2-yl]-N-pyridin-3-ylmethyl-acetamide]	B (Compounds that were tested @ 1 μM and showed >30% inhibition are designated B)
CCc1cc(-c2ccc3c(c2)CC(CC(=O)NCc2ccccn2)C3=O)ccc1O (centres unmarked) [Compound 19, 2-[5-(3-Ethyl-4-hydroxyphenyl)-1-oxo-indan-2-yl]-N-pyridin-2-ylmethyl-acetamide]	C (Compounds that were tested @ 10 μM and showed <80% inhibition and compounds that were tested @ 1 μM and showed <30% inhibition are designated C)
CCc1cc(-c2ccc3c(c2)CC(CC(=O)NCc2cnc(C)cn2)C3=O)ccc1O (centres unmarked) [Compound 20, 2-[5-(3-Ethyl-4-hydroxyphenyl)-1-oxo-indan-2-yl]-N-(5-methyl-pyrazin-2-ylmethyl)-acetamide]	C (Compounds that were tested @ 10 μM and showed <80% inhibition and compounds that were tested @ 1 μM and showed <30% inhibition are designated C)
CCc1cc(-c2ccc3c(c2)CC(C=O)C3=O)ccc1O (centres unmarked) [Compound 22, 5-(3-Ethyl-4-hydroxyphenyl)-1-oxo-indan-2-carbaldehyde]	C (Compounds that were tested @ 10 μM and showed <80% inhibition and compounds that were tested @ 1 μM and showed <30% inhibition are designated C)
CCc1cc(-c2ccc3c(c2)Cc2c[nH]nc2-3)ccc1O [Compound 24, 4-(2,4-Dihydro-indeno[1,2-c]pyrazol-6-yl)-2-ethyl-phenol]	C (Compounds that were tested @ 10 μM and showed <80% inhibition and compounds that were tested @ 1 μM and showed <30% inhibition are designated C)
CCc1cc(-c2ccc(C(=O)CCC(=O)NCc3ccccn3)cc2)ccc1O [Compound 34, 4-(3′-Ethyl-4′-hydroxy-biphenyl)-4-oxo-N-pyridin-2-ylmethyl-butyramide]	C (Compounds that were tested @ 10 μM and showed <80% inhibition and compounds that were tested @ 1 μM and showed <30% inhibition are designated C)
CCc1cc(-c2ccc(C(=O)CCC(=O)NCCc3cccnc3)cc2)ccc1O [Compound 35, 4-(3′-Ethyl-4′-hydroxy-biphenyl)-4-oxo-N-pyridin-3-ylethyl-butyramide]	C (Compounds that were tested @ 10 μM and showed <80% inhibition and compounds that were tested @ 1 μM and showed <30% inhibition are designated C)
CCc1cc(-c2ccc(C(=O)CCC(=O)NCCO)cc2)ccc1O [Compound 37, 4-(3′-Ethyl-4′-hydroxy-biphenyl)-4-oxo-N-(2-hydroxyethyl)-butyramide]	C (Compounds that were tested @ 10 μM and showed <80% inhibition and compounds that were tested @ 1 μM and showed <30% inhibition are designated C)
CCc1cc(-c2ccc(C(C)=O)cc2)ccc1OC [Compound 38, 1-(3′-Ethyl-4′-methoxy-biphenyl-4-yl)-ethanone]	C (Compounds that were tested @ 10 μM and showed <80% inhibition and compounds that were tested @ 1 μM and showed <30% inhibition are designated C)
CCc1cc(-c2ccc(C(C)=O)cc2)ccc1O [Compound 39, 1-(3′-Ethyl-4′-hydroxy-biphenyl-4-yl)-ethanone]	A (Compounds that were tested @ 10 μM and showed >80% inhibition are designated A)
CCc1cc(-c2ccc(-c3csc(N)n3)cc2)ccc1O [Compound 40, 4-(3′-Ethyl-4′-hydroxy-biphenyl-4-yl)-thiazol-2-ylamine]	C (Compounds that were tested @ 10 μM and showed <80% inhibition and compounds that were tested @ 1 μM and showed <30% inhibition are designated C)
CCc1cc(-c2ccc(-c3ccno3)cc2)ccc1O [Compound 43, 5-(3′-Ethyl-4′-hydroxy-biphenyl-4-yl)-isoxazole]	C (Compounds that were tested @ 10 μM and showed <80% inhibition and compounds that were tested @ 1 μM and showed <30% inhibition are designated C)
CCc1cc(-c2ccc(-c3cc[nH]n3)cc2)ccc1OC [Compound 44, 3-(3′-Ethyl-4′-methoxy-biphenyl-4-yl)-1H-pyrazole]	C (Compounds that were tested @ 10 μM and showed <80% inhibition and compounds that were tested @ 1 μM and showed <30% inhibition are designated C)
CCc1cc(-c2ccc(-c3ccnn3C)cc2)ccc1OC [Compound 46, 5-(3′-Ethyl-4′-methoxy-biphenyl-4-yl)-1-methyl-1H-pyrazole]	C (Compounds that were tested @ 10 μM and showed <80% inhibition and compounds that were tested @ 1 μM and showed <30% inhibition are designated C)
CCc1cc(-c2ccc(-c3ccn(CC(=O)OC)n3)cc2)ccc1OC [Compound 48, [3-(3′-Ethyl-4′-methoxy-biphenyl-4-yl)-pyrazol-1-yl]-acetic Acid Methyl Ester]	C (Compounds that were tested @ 10 μM and showed <80% inhibition and compounds that were tested @ 1 μM and showed <30% inhibition are designated C)
CCOC(=O)Cn1ccc(-c2ccc(-c3ccc(OC)c(CC)c3)cc2)n1 [Compound 49, [3-(3′-Ethyl-4′-methoxy-biphenyl-4-yl)-pyrazol-1-yl]-acetic Acid Ethyl Ester]	C (Compounds that were tested @ 10 μM and showed <80% inhibition and compounds that were tested @ 1 μM and showed <30% inhibition are designated C)
CCc1cc(-c2ccc(-c3ccn(CC(=O)NCc4cccnc4)n3)cc2)ccc1OC [Compound 51, 2-[3-(3′-Ethyl-4′-methoxy-biphenyl-4-yl)-pyrazol-1-yl]-N-pyridin-3-ylmethyl-acetamide]	C (Compounds that were tested @ 10 μM and showed <80% inhibition and compounds that were tested @ 1 μM and showed <30% inhibition are designated C)
CCc1cc(-c2ccc(-c3ccn(CC(=O)NCc4cccnc4)n3)cc2)ccc1O [Compound 52, 2-[3-(3′-Ethyl-4′-hydroxy-biphenyl-4-yl)-pyrazol-1-yl]-N-pyridin-3-ylmethyl-acetamide]	C (Compounds that were tested @ 10 μM and showed <80% inhibition and compounds that were tested @ 1 μM and showed <30% inhibition are designated C)
CCc1cc(-c2ccc(-c3cc[nH]n3)cc2)ccc1O [Compound 55, 3-(3′-Ethyl-4′-hydroxy-biphenyl-4-yl)-1H-pyrazole]	C (Compounds that were tested @ 10 μM and showed <80% inhibition and compounds that were tested @ 1 μM and showed <30% inhibition are designated C)
CCc1cc(-c2ccc(-c3cc(N)[nH]n3)cc2)ccc1O [Compound 59, 5-(3′-Ethyl-4′-hydroxy-biphenyl-4-yl)-2H-pyrazol-3-ylamine]	C (Compounds that were tested @ 10 μM and showed <80% inhibition and compounds that were tested @ 1 μM and showed <30% inhibition are designated C)
CCc1cc(-c2ccc(-c3cc(CCC(=O)NCc4cccnc4)[nH]n3)cc2)ccc1O [Compound 66, 3-[5-(3′-Ethyl-4′-hydroxy-biphenyl-4-yl)-2H-pyrazol-3-yl]-N-pyridin-3-ylmethyl-propionamide]	C (Compounds that were tested @ 10 μM and showed <80% inhibition and compounds that were tested @ 1 μM and showed <30% inhibition are designated C)
CCc1cc(-c2ccc(C(=O)CC(C)(C)C(=O)NCc3cccnc3)cc2)ccc1OC [Compound 70, 4-(3′-Ethyl-4′-methoxy-biphenyl)-2,2-dimethyl-4-oxo-N-pyridin-3-ylmethyl-butyramide]	C (Compounds that were tested @ 10 μM and showed <80% inhibition and compounds that were tested @ 1 μM and showed <30% inhibition are designated C)
CCc1cc(-c2ccc(C(=O)CC(C)(C)C(=O)NCCc3cccnc3)cc2)ccc1O [Compound 73, 4-(3′-Ethyl-4′-hydroxy-biphenyl)-2,2-dimethyl-4-oxo-N-pyridin-3-ylethyl-butyramide]	C (Compounds that were tested @ 10 μM and showed <80% inhibition and compounds that were tested @ 1 μM and showed <30% inhibition are designated C)
CCc1cc(-c2ccc(C(=O)CCC(=O)NCc3cccnc3)c(C)c2)ccc1O [Compound 78, 4-(3′-Ethyl-4′-hydroxy-3-methyl-biphenyl)-4-oxo-N-pyridin-3-ylmethyl-butyramide]	C (Compounds that were tested @ 10 μM and showed <80% inhibition and compounds that were tested @ 1 μM and showed <30% inhibition are designated C)
CC(=O)c1ccc(-c2ccc3c(c2)OCO3)cc1 [Compound 81, 1-(4-Benzo[1,3]dioxol-5-yl-phenyl)-ethanone]	C (Compounds that were tested @ 10 μM and showed <80% inhibition and compounds that were tested @ 1 μM and showed <30% inhibition are designated C)
